Test results from PubChem BioAssay (NCI).
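Method: 48-hour compound exposure of cells in 96-well plates, five concentrations, linear interpolation of endpoints. GI50 marks 50% less growth.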 A number of entries come with more than one value. They are shown here; other results are not. An entry can have further records. For part of these data: Records of one sample usually come from different ranges of test concentrations, which the source does not state; some values may only mark the edge of a range.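 TGI marks complete inhibition of growth.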 For part of these data: The values listed for one entry are repeats (runs, samples, wells, individuals or studies). Marks in square brackets tell the records apart. Letters hold for one entry only.

How the values were obtained:
Assay in all cases: DTP human tumour cell line panel, 48 h
HOP-62 NSCLC = tested on: HOP-62 NSCLC
MDA-MB-435 = tested on: MDA-MB-435
M14 melanoma = tested on: M14 melanoma
SW-620 colon = tested on: SW-620 colon
T-47D breast = tested on: T-47D breast
OVCAR-3 ovarian = tested on: OVCAR-3 ovarian
786-0 renal = tested on: 786-0 renal
SF-539 CNS = tested on: SF-539 CNS
COLO 205 colon = tested on: COLO 205 colon
HT29 colon = tested on: HT29 colon
HCC-2998 colon = tested on: HCC-2998 colon
SK-MEL-2 melanoma = tested on: SK-MEL-2 melanoma
NCI-H522 lung = tested on: NCI-H522 lung
LOX IMVI melanoma = tested on: LOX IMVI melanoma
MCF7 breast = tested on: MCF7 breast
NCI-H460 lung = tested on: NCI-H460 lung
MDA-MB-231 breast = tested on: MDA-MB-231 breast
HS 578T breast = tested on: HS 578T breast
SK-MEL-28 melanoma = tested on: SK-MEL-28 melanoma
TK-10 renal = tested on: TK-10 renal
U251 CNS = tested on: U251 CNS
UACC-257 melanoma = tested on: UACC-257 melanoma
SF-295 CNS = tested on: SF-295 CNS
MOLT-4 leukemia = tested on: MOLT-4 leukemia
PC-3 prostate = tested on: PC-3 prostate
OVCAR-8 ovarian = tested on: OVCAR-8 ovarian
IGROV1 ovarian = tested on: IGROV1 ovarian
SK-MEL-5 melanoma = tested on: SK-MEL-5 melanoma
MALME-3M melanoma = tested on: MALME-3M melanoma
SK-OV-3 ovarian = tested on: SK-OV-3 ovarian
A498 renal = tested on: A498 renal
CAKI-1 renal = tested on: CAKI-1 renal
NCI-H23 lung = tested on: NCI-H23 lung
RXF 393 renal = tested on: RXF 393 renal
HCT-116 colon = tested on: HCT-116 colon
KM12 colon = tested on: KM12 colon
K-562 leukemia = tested on: K-562 leukemia
HL-60(TB) leukemia = tested on: HL-60(TB) leukemia
CCRF-CEM leukemia = tested on: CCRF-CEM leukemia
SNB-75 CNS = tested on: SNB-75 CNS
DMS 273 small cell lung = tested on: DMS 273 small cell lung
SR leukemia = tested on: SR leukemia

| Structure (SMILES) | TGI (MDA-MB-435) | TGI (OVCAR-3 ovarian) | TGI (786-0 renal) | TGI (SF-539 CNS) | TGI (COLO 205 colon) | TGI (HT29 colon) | TGI (MCF7 breast) | TGI (MDA-MB-231 breast) | TGI (U251 CNS) | TGI (UACC-257 melanoma) | TGI (SF-295 CNS) | TGI (MOLT-4 leukemia) | TGI (PC-3 prostate) | TGI (SK-MEL-5 melanoma) | TGI (A498 renal) | TGI (CAKI-1 renal) | further results |
| --- | --- | --- | --- | --- | --- | --- | --- | --- | --- | --- | --- | --- | --- | --- | --- | --- | --- |
| CN(C)CCOc1ccc(/C(=C(/CCCl)c2ccccc2)c2ccccc2)cc1 | 31.8 µM [sample A] and 1.78 µM [sample B] | 24.2 µM [sample A] and 2.08 µM [sample B] | 32.4 µM [sample A] and 1.76 µM [sample B] | 31.4 µM [sample A] and 1.64 µM [sample B] | 40 µM [sample A] and 1.58 µM [sample B] | 18.1 µM [sample A] and 1.28 µM [sample B] | 16.4 µM [sample A] and 1.62 µM [sample B] | 31.1 µM [sample A] and 2.26 µM [sample B] | 32.6 µM [sample A] and 1.51 µM [sample B] | 35.4 µM [sample A] and 1.82 µM [sample B] | 28.5 µM [sample A] and 2.07 µM [sample B] | 36.8 µM [sample A] and 2.94 µM [sample B] | 29.9 µM [sample A] and 2.72 µM [sample B] | 29.5 µM [sample A] and 1.45 µM [sample B] | – | – | TGI (HOP-62 NSCLC): 29.6 µM [sample A] and 1.82 µM [sample B]; TGI (M14 melanoma): 29.1 µM [sample A] and 1.88 µM [sample B]; TGI (SW-620 colon): 30.1 µM [sample A] and 2.01 µM [sample B]; TGI (T-47D breast): 33.2 µM [sample A] and 2.91 µM [sample B]; TGI (HCC-2998 colon): 19 µM [sample A] and 1.5 µM [sample B]; TGI (SK-MEL-2 melanoma): 29.7 µM [sample A] and 1.75 µM [sample B]; TGI (NCI-H522 lung): 30.1 µM [sample A] and 1.69 µM [sample B]; TGI (LOX IMVI melanoma): 32 µM [sample A] and 1.53 µM [sample B]; TGI (NCI-H460 lung): 29.1 µM [sample A] and 1.59 µM [sample B]; TGI (HS 578T breast): 34.5 µM [sample A] and 2.8 µM [sample B]; TGI (SK-MEL-28 melanoma): 29.4 µM [sample A] and 1.64 µM [sample B]; TGI (TK-10 renal): 28.6 µM [sample A] and 2.2 µM [sample B]; TGI (OVCAR-8 ovarian): 31.5 µM [sample A] and 2.42 µM [sample B]; TGI (IGROV1 ovarian): 46.4 µM [sample A] and 4.01 µM [sample B]; TGI (MALME-3M melanoma): 33.8 µM [sample A] and 1.92 µM [sample B] |
| CN1CCN(c2ccc3nc(-c4c(N)c5c(F)cccc5[nH]c4=O)[nH]c3c2)CC1 | – | – | – | – | – | – | – | – | – | – | – | – | – | – | 1.47 µM [sample A, 1 test] and 378 nM [sample B, 1 test] and 17.1 µM [sample C, 1 test] | – | TGI (SK-OV-3 ovarian): 1.58 µM [sample A, mean of 2 tests] and > 10 µM [sample B, mean of 2 tests] and 16.1 µM [sample C, 1 test] |
| CCOc1cc2c(cc1O)/C(=N\O)C[C@@H]1[C@@H]2CC[C@]2(C)[C@@H](O)CC[C@@H]12 | – | 38.5 nM and 10.5 µM | – | 6.89 nM and > 100 µM | 3.28 nM and 23.7 µM | – | 2.29 µM and > 100 µM | 2.88 nM and 508 nM | – | 275 nM and > 100 µM | – | – | – | – | – | 3.03 nM and > 100 µM | GI50 (CAKI-1 renal): 1.59 nM and 42.6 nM; TGI (NCI-H23 lung): 2.65 µM and 27.2 µM; GI50 (SK-MEL-2 melanoma): 801 nM and 57.4 nM; GI50 (MDA-MB-231 breast): 1.41 nM and 52.9 nM; GI50 (RXF 393 renal): 24 nM and 353 nM; TGI (HCT-116 colon): 394 nM and > 43 µM; TGI (KM12 colon): 1.2 µM and > 100 µM |
| O=C([O][Hg][CH2]C1COC([CH2][Hg][O]C(=O)c2ccccc2)CO1)c1ccccc1 (stereo not drawn) | 30.4 µM and 2.99 µM | – | – | – | – | – | – | – | – | – | – | – | 28.7 µM and 2.65 µM | – | – | – | – |
| C/C(=N\N=C(\[Se])N1CCN(c2ccccn2)CC1)c1ccccn1 | – | – | – | – | – | – | – | – | – | – | – | 29.5 nM and > 100 µM | – | – | – | – | TGI (K-562 leukemia): 11.6 nM and > 48.7 µM; TGI (HL-60(TB) leukemia): 531 nM and 7.7 µM; GI50 (CCRF-CEM leukemia): 2.11 nM and 23.4 nM; TGI (CCRF-CEM leukemia): 8.58 nM and 17.4 µM |
| CCOC(=O)Nc1cc2c(c(N)n1)N=C(c1ccccc1)[C@H](C)N2 | – | – | 557 nM and 24.3 µM | – | – | 46.4 nM and 10 µM | – | – | 46.4 nM and 13.2 µM | – | < 0.1 nM and 12.6 µM | – | – | 3.16 nM and 12.7 µM | 0.991 nM and 12.5 µM | < 0.1 nM and 61 µM | TGI (SNB-75 CNS): 925 nM and > 100 µM; TGI (RXF 393 renal): < 0.1 nM and 27.8 µM; TGI (DMS 273 small cell lung): < 0.1 nM and 14.5 µM; TGI (SR leukemia): 3.16 nM and > 100 µM |
